Source: the supplement of paper PMC4166925
± gives the standard deviation of the averaged measurements. The full ranking holds about 33,000 sequences; the median of “E-score (dimensionless, -0.5 to 0.5)” is about -0.046, and the highest 2% start at about 0.36. Some of the results follow.

tested on: T1, SpTbr T-box DNA-binding domain (GST fusion); test: PBM E-score of 8-mer (E-score (dimensionless, -0.5 to 0.5)); Tbr is Tbrain of the sea star Patiria miniata (Pm) or the sea urchin Strongylocentrotus purpuratus (Sp); higher = stronger binding preference; most listed sequences are background and not binding sites; details: the construct has about 5 more residues each side
T1 sequence: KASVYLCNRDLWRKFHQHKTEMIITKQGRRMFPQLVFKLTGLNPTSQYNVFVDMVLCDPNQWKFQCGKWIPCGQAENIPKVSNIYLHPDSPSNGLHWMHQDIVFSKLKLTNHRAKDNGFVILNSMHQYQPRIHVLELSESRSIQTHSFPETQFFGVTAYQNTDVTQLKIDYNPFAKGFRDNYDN
How it was run: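 Primer extension turned Universal Agilent oligonucleotide arrays double-stranded. They were incubated with 200 nM protein in PBS (pH 7.5); the protein was a GST-fused Tbr T-box DNA-binding domain expressed in BL21 E. coli at 20 °C and purified on glutathione. Every ungapped 8-mer was scored from the scanned, quantified probe intensities, and the Universal PBM Analysis Suite gave each an enrichment E-score averaged over duplicate arrays.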

Sequence	PBM E-score of 8-mer
CTGAAAGA	-0.276 ± 0.023
AGTGGAAA	0.151 ± 0.025
AAGCAGAC	-0.0605 ± 0.038
GGCAATAC	-0.18 ± 0.041
CGAGACCG	-0.0772 ± 0.057
GCCTTCGA	-0.0366 ± 0.023
ACCATGGC	-0.0735 ± 0.0022
AAAAGATA	-0.0313 ± 0.063
CCATCCCG	-0.168 ± 0.041
CTTATCCA	-0.0477 ± 0.044
AACTCCTG	0.0427 ± 0.043
AACCGATA	-0.0484 ± 0.055
TATCTCAA	-0.0883 ± 0.013
GATTTGCA	0.122 ± 0.067
ACACCGTG	0.347 ± 0.011
AATGGCGA	0.157 ± 0.012
CCGGTTGC	-0.129 ± 0.012
GTGCTTTA	-0.0201 ± 0.034
CACACATG	0.383 ± 0.021
GAGAGCGA	0.107 ± 0.013
CCTTTGCC	-0.146 ± 0.027
AATTCGTA	-0.11 ± 0.0012

Sequence	PBM E-score of 8-mer
CGTTGCAG	-0.0104 ± 0.004
ACATTAGA	-0.00549 ± 0.043
CCTAATAG	-0.206 ± 0.063
GGCTTGAA	-0.057 ± 0.044
CCAACCCG	-0.00966 ± 0.063
CCTAGCTC	-0.153 ± 0.011
TAATCGAA	-0.19 ± 0.088
GGTTTTAA	-0.049 ± 0.034
AGACCCTG	0.025 ± 0.039
AACATGCA	-0.115 ± 0.048
CCACTGCA	-0.158 ± 0.016
CAAGATGG	0.0383 ± 0.035
CAAATTGG	-0.0598 ± 0.074
AAATGGGA	-0.255 ± 0.036
GCGAAAAA	0.257 ± 0.076
AGACGGCC	-0.227 ± 0.01
TCGATAAA	0.0743 ± 0.099
CACTTTGG	0.176 ± 0.018
CATCTAAG	-0.0428 ± 0.018
AGACCTAC	-0.161 ± 0.039
AGGGGTTA	-0.0379 ± 0.026
GCCTTCAC	0.256 ± 0.022

Sequence	PBM E-score of 8-mer
CATTTGGA	-0.127 ± 0.026
AGAGTTCA	0.102 ± 0.054
AACATATA	-0.166 ± 0.054
AGGGCTGG	-0.253 ± 0.011
CTAAGTTC	-0.145 ± 0.034
GACCCGTC	0.118 ± 0.03
CGGGGGGA	-0.183 ± 0.036
GGAGATCC	-0.262 ± 0.025
AATGTCTA	-0.137 ± 0.018
TTGCAAAA	0.0516 ± 0.071
CACCGACC	0.0425 ± 0.027
CAAGCAAG	-0.07 ± 0.011
AATGTTAA	-0.0502 ± 0.052
ACTGCGAT	0.117 ± 0.0014
AGACCGCA	-0.231 ± 0.011
AGCTCCAA	-0.217 ± 0.064
CCTGGCAA	-0.0798 ± 0.0092
GGCCTCGA	-0.151 ± 0.065
ATTACCGC	-0.0899 ± 0.022
GTCACTAA	0.261 ± 0.024
AGGCGCGA	0.471 ± 0.0037
GCTTCCCC	-0.0756 ± 0.059

Sequence	PBM E-score of 8-mer
ATCAACCC	-0.0585 ± 0.0049
TCAAGGGA	-0.152 ± 0.026
CATTTCCG	-0.0659 ± 0.025
AAGGGTGC	0.33 ± 0.025
TAGTCTCA	0.0587 ± 0.025
ACCCCACA	0.26 ± 0.035
CAAAAAGA	-0.29 ± 0.045
CGTTAGGC	0.0761 ± 0.053
ACCCAGAG	-0.0586 ± 0.02
CTACGACA	0.0692 ± 0.056
CCCGCCAG	0.129 ± 0.05
CTCGGAGC	-0.168 ± 0.078
AACCTACT	-0.2 ± 0.031
CTACACAC	0.226 ± 0.066
AATAAGCG	0.133 ± 0.049
CCCGTAGC	-0.00901 ± 0.077
AATTCACA	0.297 ± 0.035
CAACGTTA	0.0311 ± 0.014
GACGGGGC	-0.191 ± 0.0037
GTATTCCA	-0.17 ± 0.0078
